According to patent US10413607B2, “Antibody specifically binding to ErbB3 and use thereof” (ISU ABXIS CO., LTD., priority 2015, dated 2019):

Target: T1, recombinant human ErbB3 protein (Homo sapiens, UniProt P21860)
T1 construct: purchased R&D systems
Test: Binding affinity of anti-ErbB3 antibody to human ErbB3 protein (Octet QK384)
Conditions: immobilized human ErbB3; for ka (association constant): binding phase about 900 seconds; for kd (dissociation constant): dissociation phase about 1200 seconds
Method: In particular, the binding affinities of the anti-ErbB3 antibodies to the recombinant human ErbB3 protein (R&D systems) and the antigen-antibody interactive dynamics were measured using an Octet® QK384 system (Pall Life Sciences). After activation of carboxyl groups in 20 mM of 1-ethyl-3-(3-dimethylaminopropyl)carbodiimide hydrochloride (EDC) and 40 mM of N-hydroxysulfosuccinimide (sulfo-NHS) solution on an AR2G sensor (ForteBio), 10 μg/mL of human ErbB3 protein solution diluted with 10 mM of sodium acetate (pH 4.0) (ForteBio) was added to immobilize human ErbB3 protein onto the AR2G sensor. The AR2G sensor to which the human ErbB3 protein was immobilized was treated with 1 M of ethanolamine (ForteBio) to inactivate the remaining unreacted carboxyl groups.

B1: 442S10: modified anti-ErbB3 antibody from lead antibody 442P (CDR mutagenesis) (antibody, V domains shown)
VH: EVQLLESGGGLVQPGGSLRLSCAASGFTFSDYDMSWVRQAPGKGLEWVSSIYPDSGSTYYADSVQGRFTISRDNSKNTLYLQMNSLRAEDTAVYYCAKDRHMWPEGPFDYWGQGTLVTVSS
VL: QSVLTQPPSASGTPGQRVTISCSGSSSNIGSNSVSWYQQLPGTAPKLLIYSDNHRPSGVPDRFSGSKSGTSASLAISGLRSEDEADYYCAAWDSSLSGYVFGGGTKLTVLG
modifications: Heavy chain variable region of antibody 442S10; Light chain variable region of antibody 442S10
For B1, which “ka (association constant)” value is on record?
Its value is 814000 M⁻¹ s⁻¹.

And the “kd (dissociation constant)” value?
The value was 9.29e-05 s⁻¹.

B2: 442M7: modified anti-ErbB3 antibody from lead antibody 442P (CDR mutagenesis) (antibody, V domains shown)
VH: B1 VH with S50T, Y52E, G66S, R100L, W103G
VL: B1 VL
modifications: Heavy chain variable region of antibody 442M7; Light chain variable region of antibody 442M7
Which results are given for B2?
ka (association constant): 1.56e+06 M⁻¹ s⁻¹; kd (dissociation constant): 4.55e-05 s⁻¹

B3: 442S5: modified anti-ErbB3 antibody from lead antibody 442P (CDR mutagenesis) (antibody, V domains shown)
VH: B1 VH with S50I, Y52E, T58I, R100L, W103G
VL: B1 VL
modifications: Heavy chain variable region of antibody 442S5; Light chain variable region of antibody 442S5
For B3, which “ka (association constant)” value is on record?
Its value is 1.57e+06 M⁻¹ s⁻¹.

What about the “kd (dissociation constant)” value of the same molecule?
The value was 2.74e-05 s⁻¹.

B4: 442S4: modified anti-ErbB3 antibody from lead antibody 442P (CDR mutagenesis) (antibody, V domains shown)
VH: B1 VH with Y52E, S55F, T58S, Q65R, R100L, W103G
VL: B1 VL
modifications: Heavy chain variable region of antibody 442S4; Light chain variable region of antibody 442S4
Which results are given for B4?
ka (association constant): 1.48e+06 M⁻¹ s⁻¹; kd (dissociation constant): 5.47e-05 s⁻¹

B5: 442S2: modified anti-ErbB3 antibody from lead antibody 442P (CDR mutagenesis) (antibody, V domains shown)
VH: B1 VH with Y59D, R100L, W103G
VL: B1 VL
modifications: Heavy chain variable region of antibody 442S2; Light chain variable region of antibody 442S2
What does the source list for B5?
ka (association constant): 1.17e+06 M⁻¹ s⁻¹; kd (dissociation constant): 8.28e-05 s⁻¹

Residue numbers refer to the chain shown, from its start.
